The supplement of paper PMC10037445
Where “and” joins values, the source holds several entries; their conditions need not be identical. Equal entries are not always repeated. In all, about 2,900 compounds were measured (“IRF Lucia reporter activity, fold change vs agonist alone”: median about 0.9, highest 2% from about 2.8 on). The list shows a part of the results.

Key:
[1] = test system: RAW-Dual; assay: IRF Lucia reporter activity, fold change vs agonist alone; cytotoxicity flag (confluency mask): not cytotoxic; higher = enhanced IRF activity
Summary of the method: (§1)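 Reporter activity is given as fold change relative to agonist-alone wells. To measure it, 50 nL of library stock was pin-tooled onto RAW-Dual macrophages (50,000 cells/well, DMEM, 384-well plates), a PRR agonist followed 1 h later, and cells stayed at 37 °C, 5% CO2. Twenty hours on, supernatant was assayed for IRF (QuantiLuc luminescence) and NF-κB (QuantiBlue, 620 nm absorbance), and wells under 70% of agonist-control IncuCyte confluency in both mask sets were marked cytotoxic.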

[2] = test system: RAW-Dual; assay: IRF Lucia reporter activity, fold change vs agonist alone; higher = enhanced IRF activity; conditions: agonist: MPLA (TLR4) […]
Summary of the method: as §1

[3] = test system: RAW-Dual; assay: IRF Lucia reporter activity, fold change vs agonist alone; cytotoxicity flag (confluency mask): cytotoxic (confluency <70% of control); higher = enhanced IRF activity
Summary of the method: as §1

[4] = agonist: 3'3'-cGAMP (STING) 10 ug/mL
[5] = library stock concentration (final ~1000-fold dilution): 10 mM, cytotoxicity flag (confluency mask): not cytotoxic

SMILES: C=CCN1CCCC1CNC(=O)c1cc2nn[nH]c2cc1OC.Cl (centres undefined) (library stock concentration (final ~1000-fold dilution): 10 mM)
- IRF Lucia reporter activity [1, 4]: 1.09
- IRF Lucia reporter activity ([1]; agonist: LPS (TLR4) 0.1 ug/mL): 1.19

SMILES: C=CCN1CCCC1CNC(=O)c1cc2nn[nH]c2cc1OC.Cl (centres undefined)
- IRF Lucia reporter activity [2, 5]: 1.15

SMILES: O=C(Nc1cc(C(F)(F)F)ccc1C(F)(F)F)c1cc(Br)ccc1O (library stock concentration (final ~1000-fold dilution): 10 mM)
- IRF Lucia reporter activity [3, 4]: 0.0368
- IRF Lucia reporter activity ([3]; agonist: LPS (TLR4) 0.1 ug/mL): 4.46

SMILES: CCCCNNC(=O)c1ccc(Br)cc1 (library stock concentration (final ~1000-fold dilution): 10 mM)
- IRF Lucia reporter activity [1, 4]: 0.408
- IRF Lucia reporter activity ([1]; agonist: LPS (TLR4) 0.1 ug/mL): 0.355

SMILES: CCCCNNC(=O)c1ccc(Br)cc1
- IRF Lucia reporter activity [2, 5]: 0.401

SMILES: CNc1nc(Nc2cnn(C3CCN(C4COC4)CC3F)c2Cl)ncc1C(F)(F)F (centres undefined) (library stock concentration (final ~1000-fold dilution): 10 mM)
- IRF Lucia reporter activity [1, 4]: 0.386
- IRF Lucia reporter activity ([1]; agonist: LPS (TLR4) 0.1 ug/mL): 0.0478

SMILES: CNc1nc(Nc2cnn(C3CCN(C4COC4)CC3F)c2Cl)ncc1C(F)(F)F (centres undefined)
- IRF Lucia reporter activity [2, 5]: 0.229

SMILES: CCOC(=O)C(CCc1ccccc1)NC(C)C(=O)N1C(C(=O)O)CC2CCCC21 (centres undefined)
- IRF Lucia reporter activity [2, 5]: 0.729

SMILES: CCOC(=O)C(CCc1ccccc1)NC(C)C(=O)N1C(C(=O)O)CC2CCCC21 (centres undefined) (library stock concentration (final ~1000-fold dilution): 10 mM)
- IRF Lucia reporter activity [1, 4]: 0.976
- IRF Lucia reporter activity ([1]; agonist: LPS (TLR4) 0.1 ug/mL): 1.01

SMILES: Nc1ccc(S(=O)(=O)c2ccc(N)cc2)cc1 (library stock concentration (final ~1000-fold dilution): 10 mM)
- IRF Lucia reporter activity [1, 4]: 0.961
- IRF Lucia reporter activity ([1]; agonist: LPS (TLR4) 0.1 ug/mL): 0.883

SMILES: O=C(c1ccc(C(=O)N2CCC(N3CCCC3)CC2)c(Nc2ccccc2)c1)N1CCC(N2CCCC2)CC1
- IRF Lucia reporter activity [2, 5]: 0.954

SMILES: O=C(c1ccc(C(=O)N2CCC(N3CCCC3)CC2)c(Nc2ccccc2)c1)N1CCC(N2CCCC2)CC1 (library stock concentration (final ~1000-fold dilution): 10 mM)
- IRF Lucia reporter activity [1, 4]: 1.06
- IRF Lucia reporter activity ([1]; agonist: LPS (TLR4) 0.1 ug/mL): 0.99

SMILES: N#CCC1(n2cc(-c3ncnc4[nH]ccc34)cn2)CN(C2CCN(C(=O)c3ccnc(C(F)(F)F)c3F)CC2)C1 (library stock concentration (final ~1000-fold dilution): 10 mM)
- IRF Lucia reporter activity [1, 4]: 0.457
- IRF Lucia reporter activity ([1]; agonist: LPS (TLR4) 0.1 ug/mL): 0.842

SMILES: OCCN1CCN(CCCN2c3ccccc3Sc3ccc(Cl)cc32)CC1 (library stock concentration (final ~1000-fold dilution): 10 mM)
- IRF Lucia reporter activity [3, 4]: 0.511
- IRF Lucia reporter activity ([3]; agonist: LPS (TLR4) 0.1 ug/mL): 0.793

SMILES: OCCN1CCN(CCCN2c3ccccc3Sc3ccc(Cl)cc32)CC1
- IRF Lucia reporter activity ([2]; library stock concentration (final ~1000-fold dilution): 10 mM, cytotoxicity flag (confluency mask): cytotoxic (confluency <70% of control)): 1.48

SMILES: COc1ccc(CCC(=O)N(c2nccc3ccccc23)C2CCCNC2)cc1 (centres undefined) (library stock concentration (final ~1000-fold dilution): 10 mM)
- IRF Lucia reporter activity [1, 4]: 0.302
- IRF Lucia reporter activity ([1]; agonist: LPS (TLR4) 0.1 ug/mL): 1.26

SMILES: CC(C)CN(CC(O)C(Cc1ccccc1)NC(=O)OC1COC2OCCC12)S(=O)(=O)c1ccc(N)cc1.CCO (centres undefined)
- IRF Lucia reporter activity [2, 5]: 1.12

SMILES: CC(C)CN(CC(O)C(Cc1ccccc1)NC(=O)OC1COC2OCCC12)S(=O)(=O)c1ccc(N)cc1.CCO (centres undefined) (library stock concentration (final ~1000-fold dilution): 10 mM)
- IRF Lucia reporter activity [1, 4]: 1.05
- IRF Lucia reporter activity ([1]; agonist: LPS (TLR4) 0.1 ug/mL): 0.964

SMILES: CCCCS(=O)c1sc2nc(-c3cccs3)cc(-c3ccccc3)c2c1N (centres undefined) (library stock concentration (final ~1000-fold dilution): 10 mM)
- IRF Lucia reporter activity [1, 4]: 0.181
- IRF Lucia reporter activity ([1]; agonist: LPS (TLR4) 0.1 ug/mL): 0.663

SMILES: Nc1nc2[nH]cc(CCc3ccc(C(=O)NC(CCC(=O)O)C(=O)O)cc3)c2c(=O)[nH]1 (centres undefined) (library stock concentration (final ~1000-fold dilution): 10 mM water)
- IRF Lucia reporter activity [1, 4]: 1.15 and 0.82
- IRF Lucia reporter activity ([1]; agonist: LPS (TLR4) 0.1 ug/mL): 0.998 and 0.771

SMILES: Nc1nc2[nH]cc(CCc3ccc(C(=O)NC(CCC(=O)O)C(=O)O)cc3)c2c(=O)[nH]1 (centres undefined)
- IRF Lucia reporter activity ([2]; library stock concentration (final ~1000-fold dilution): 10 mM water, cytotoxicity flag (confluency mask): not cytotoxic): 1.12

SMILES: CC1(c2nc3c(C(N)=O)cccc3[nH]2)CCCN1 (centres undefined) (library stock concentration (final ~1000-fold dilution): 10 mM)
- IRF Lucia reporter activity [1, 4]: 0.573
- IRF Lucia reporter activity ([1]; agonist: LPS (TLR4) 0.1 ug/mL): 0.842

SMILES: CC1(c2nc3c(C(N)=O)cccc3[nH]2)CCCN1 (centres undefined)
- IRF Lucia reporter activity [2, 5]: 0.639

SMILES: CCc1cncnc1N1CCN(Cc2nc3cc(C(F)(F)F)ccc3[nH]2)CC1 (library stock concentration (final ~1000-fold dilution): 10 mM)
- IRF Lucia reporter activity [1, 4]: 0.539
- IRF Lucia reporter activity ([1]; agonist: LPS (TLR4) 0.1 ug/mL): 0.646

SMILES: CCc1cncnc1N1CCN(Cc2nc3cc(C(F)(F)F)ccc3[nH]2)CC1
- IRF Lucia reporter activity [2, 5]: 0.88

SMILES: COc1ccc(-n2c(C)c([N+](=O)[O-])c3ccc(O)cc32)cc1 (library stock concentration (final ~1000-fold dilution): 10 mM)
- IRF Lucia reporter activity [1, 4]: 0.0617
- IRF Lucia reporter activity ([1]; agonist: LPS (TLR4) 0.1 ug/mL): 0.402

SMILES: COc1ccc(-n2c(C)c([N+](=O)[O-])c3ccc(O)cc32)cc1
- IRF Lucia reporter activity [2, 5]: 0.517

SMILES: O=S(=O)(c1ccccc1)c1cnc2c(N3CCNCC3)cccc2c1
- IRF Lucia reporter activity [2, 5]: 1.04
